Test results: US9023789B2, “Amylin analogs and pharmaceutical compositions thereof” (Novo Nordisk A/S, priority 2012, dated 2015)
The name of at least one read-out is uncertain. Numbered stars: 1 amine (or outer) side, 2 acyl side, 3 side chain; on linkers, the order of the positions; unused ones are H or OH. Bridge positions count the residues as written; N and C are the ends. Side chains are listed from the residue outwards. Peptide text beside a SMILES is read from it. * marks the point of attachment. C20 diacid = O=C(O)CCCCCCCCCCCCCCCCCCC(=O)*; γGlu = O=C(O)[C@H](CCC(=O)[*:2])N[*:1]

Experiment: ASSAY (III) ThT fibrillation assay for physical stability
Type: physicochemical
Text: Assay (III)—ThT Fibrillation Assays for the Assessment of Physical Stability of Protein Formulations Low physical stability of a polypeptide may lead to amyloid fibril formation, which is observed as well-ordered, thread-like macromolecular structures in the sample eventually resulting in gel formation. This has traditionally been measured by visual inspection of the sample. However, that kind of measurement is very subjective and depending on the observer. Therefore, the application of a small molecule indicator probe is much more advantageous. Thioflavin T (ThT) is such a probe and has a distinct fluorescence signature when binding to fibrils [Naiki et al. (1989) Anal. […] LeVine (1999) Methods. Enzymol. […], 274-284]. The time course for fibril formation can be described by a sigmoidal curve with the following expression [Nielsen et al. (2001) Biochemistry 40, 6036-6046]; […] Here, F is the ThT fluorescence at the time t. The constant t0 is the time needed to reach 50% of maximum fluorescence. […] Few of those intermediates nucleate to form a template onto which further intermediates may assembly and the fibrillation proceeds. The lag-time corresponds to the interval in which the critical mass of nucleus is built up and the apparent rate constant is the rate with which the fibril itself is formed. Sample Preparation Samples were prepared freshly before each assay. Each sample composition is described in each example. The pH of the sample was adjusted to the desired value using appropriate amounts of concentrated NaOH and HClO4 or HCl. Thioflavin T was added to the samples from a stock solution in H2O to a final concentration of 1 μM. Sample aliquots of 200 μl were placed in a 96 well microtiter plate (Packard OptiPlate™96, white polystyrene). Usually, four or eight replica of each sample (corresponding to one test condition) were placed in one column of wells. The plate was sealed with Scotch Pad (Qiagen). Incubation and Fluorescence Measurement Incubation at given temperature, shaking and measurement of the ThT fluorescence emission were done in a Fluoroskan Ascent FL fluorescence platereader or Varioskan platereader (Thermo Labsystems). The temperature was adjusted to 37° C. The orbital shaking was adjusted to 960 rpm with an amplitude of 1 mm in all the presented data. Fluorescence measurement was done using excitation through a 444 nm filter and measurement of emission through a 485 nm filter. Each run was initiated by incubating the plate at the assay temperature for 10 min. The plate was measured every 20 minutes for a desired period of time. Between each measurement, the plate was shaken and heated as described. Data Handling The measurement points were saved in Microsoft Excel format for further processing and curve drawing and fitting was performed using GraphPad Prism. The background emission from ThT in the absence of fibrils was negligible. The data points are typically a mean of four or eight samples and shown with standard deviation error bars. Only data obtained in the same experiment (i.e. samples on the same plate) are presented in the same graph ensuring a relative measure of fibrillation between experiments. The data set may be fitted to Eq. […] However, since full sigmodial curves in this case are not always achieved during the measurement time, the degree of fibrillation is expressed as ThT fluorescence tabulated as the mean of the samples and shown with the standard deviation at various time points. Measurement of Initial and Final Concentrations The polypeptide concentration in each of the tested formulations were measured both before application in the ThT fibrillation assay (“Initial”) and after completion of the ThT fibrillation (“After ThT assay”). Concentrations were determined by reverse HPLC methods using a pramlintide standard as a reference. Before measurement after completion 150 μl was collected from each of the replica and transferred to an Eppendorf tube. These were centrifuged at 30000 G for 40 mins. […]

Going from `CC[C@H](C)[C@H](NC(=O)[C@H](C)NC(=O)CNC(=O)[C@H](Cc1ccccc1)NC(=O)[C@H](CC(N)=O)NC(=O)[C@@H]1CCCN1C(=O)[C@H](CO)NC(=O)[C@H](CO)NC(=O)[C@H](Cc1c[nH]cn1)NC(=O)[C@H](CCCNC(=N)N)NC(=O)[C@H](CC(C)C)NC(=O)[C@H](Cc1ccccc1)NC(=O)[C@H](CCC(=O)O)NC(=O)[C@H](C)NC(=O)[C@H](CC(C)C)NC(=O)[C@H](CCCNC(=N)N)NC(=O)[C@H](CCC(N)=O)NC(=O)[C@@H](NC(=O)[C@H](C)NC(=O)[C@@H]1CSSC[C@H](NC(=O)[C@H](CCCCN)NC(=O)CC[C@H](NC(=O)CCCCCCCCCCCCCCCCCCC(=O)O)C(=O)O)C(=O)N[C@@H](CC(N)=O)C(=O)N[C@@H]([C@@H](C)O)C(=O)N[C@@H](C)C(=O)N[C@@H]([C@@H](C)O)C(=O)N1)[C@@H](C)O)C(=O)N1CCC[C@H]1C(=O)N[C@@H](CO)C(=O)N[C@@H](CO)C(=O)N[C@H](C(=O)N[C@@H](CC(N)=O)C(=O)N[C@H](C(=O)NCC(=O)N[C@@H](CO)C(=O)N[C@@H](CC(=O)O)C(=O)N[C@H](C(=O)N1CCC[C@H]1C(N)=O)[C@@H](C)O)C(C)C)[C@@H](C)O` [Example 11] ({C20 diacid-γGlu}-KCNTATCATQRLAEFLRHSSPNFGAIPSSTNVGSDTP-NH2; disulfide 2-7 (inferred)) to `CC[C@H](C)[C@H](NC(=O)[C@H](C)NC(=O)CNC(=O)[C@H](Cc1ccccc1)NC(=O)[C@H](CC(N)=O)NC(=O)[C@@H]1CCCN1C(=O)[C@H](CO)NC(=O)[C@H](CO)NC(=O)[C@H](Cc1c[nH]cn1)NC(=O)[C@H](CCCNC(=N)N)NC(=O)[C@H](CC(C)C)NC(=O)[C@H](Cc1ccccc1)NC(=O)[C@H](CCC(=O)O)NC(=O)[C@H](C)NC(=O)[C@H](CC(C)C)NC(=O)[C@H](CCCNC(=N)N)NC(=O)[C@H](CCC(N)=O)NC(=O)[C@@H](NC(=O)[C@H](C)NC(=O)[C@@H]1CSSC[C@H](NC(=O)[C@H](CCCCN)NC(=O)CC[C@H](NC(=O)CC[C@H](NC(=O)CCCCCCCCCCCCCCCCCCC(=O)O)C(=O)O)C(=O)O)C(=O)N[C@@H](CC(N)=O)C(=O)N[C@@H]([C@@H](C)O)C(=O)N[C@@H](C)C(=O)N[C@@H]([C@@H](C)O)C(=O)N1)[C@@H](C)O)C(=O)N1CCC[C@H]1C(=O)N[C@@H](CO)C(=O)N[C@@H](CO)C(=O)N[C@H](C(=O)N[C@@H](CC(N)=O)C(=O)N[C@H](C(=O)NCC(=O)N[C@@H](CO)C(=O)N[C@@H](CC(N)=O)C(=O)N[C@H](C(=O)N1CCC[C@H]1C(N)=O)[C@@H](C)O)C(C)C)[C@@H](C)O` [Example 14] ({C20 diacid-γGlu-γGlu}-KCNTATCATQRLAEFLRHSSPNFGAIPSSTNVGSNTP-NH2; disulfide 2-7), the “ThT pH 4.0 recovery (%)” value falls from 89% to 88%.

First: CC[C@H](C)[C@H](NC(=O)[C@H](C)NC(=O)CNC(=O)[C@H](Cc1ccccc1)NC(=O)[C@H](CC(N)=O)NC(=O)[C@@H]1CCCN1C(=O)[C@H](CO)NC(=O)[C@H](CO)NC(=O)[C@H](Cc1c[nH]cn1)NC(=O)[C@H](CCCNC(=N)N)NC(=O)[C@H](CC(C)C)NC(=O)[C@H](Cc1ccccc1)NC(=O)[C@H](CCC(=O)O)NC(=O)[C@H](C)NC(=O)[C@H](CC(C)C)NC(=O)[C@H](CCCNC(=N)N)NC(=O)[C@H](CCC(N)=O)NC(=O)[C@@H](NC(=O)[C@H](C)NC(=O)[C@@H]1CSSC[C@H](NC(=O)[C@@H](N)CCCCNC(=O)CC[C@H](NC(=O)CCCCCCCCCCCCCCCCCCC(=O)O)C(=O)O)C(=O)N[C@@H](CC(N)=O)C(=O)N[C@@H]([C@@H](C)O)C(=O)N[C@@H](C)C(=O)N[C@@H]([C@@H](C)O)C(=O)N1)[C@@H](C)O)C(=O)N1CCC[C@H]1C(=O)N[C@@H](CO)C(=O)N[C@@H](CO)C(=O)N[C@H](C(=O)N[C@@H](CC(N)=O)C(=O)N[C@H](C(=O)NCC(=O)N[C@@H](CO)C(=O)N[C@@H](CC(N)=O)C(=O)N[C@H](C(=O)N1CCC[C@H]1C(N)=O)[C@@H](C)O)C(C)C)[C@@H](C)O [Example 12] (H-K([γGlu-C20 diacid])CNTATCATQRLAEFLRHSSPNFGAIPSSTNVGSNTP-NH2; disulfide 2-7 (inferred); N-terminus assumed)
Second: CC[C@H](C)[C@H](NC(=O)[C@H](C)NC(=O)CNC(=O)[C@H](Cc1ccccc1)NC(=O)[C@H](CC(N)=O)NC(=O)[C@@H]1CCCN1C(=O)[C@H](CO)NC(=O)[C@H](CO)NC(=O)[C@H](Cc1c[nH]cn1)NC(=O)[C@H](CCCNC(=N)N)NC(=O)[C@H](CC(C)C)NC(=O)[C@H](Cc1ccccc1)NC(=O)[C@H](CCC(=O)O)NC(=O)[C@H](C)NC(=O)[C@H](CC(C)C)NC(=O)[C@H](CCCNC(=N)N)NC(=O)[C@H](CCC(N)=O)NC(=O)[C@@H](NC(=O)[C@H](C)NC(=O)[C@@H]1CSSC[C@H](NC(=O)[C@@H](N)CCCCNC(=O)CC[C@H](NC(=O)CC[C@H](NC(=O)CCCCCCCCCCCCCCCCCCC(=O)O)C(=O)O)C(=O)O)C(=O)N[C@@H](CC(N)=O)C(=O)N[C@@H]([C@@H](C)O)C(=O)N[C@@H](C)C(=O)N[C@@H]([C@@H](C)O)C(=O)N1)[C@@H](C)O)C(=O)N1CCC[C@H]1C(=O)N[C@@H](CO)C(=O)N[C@@H](CO)C(=O)N[C@H](C(=O)N[C@@H](CC(N)=O)C(=O)N[C@H](C(=O)NCC(=O)N[C@@H](CO)C(=O)N[C@@H](CC(N)=O)C(=O)N[C@H](C(=O)N1CCC[C@H]1C(N)=O)[C@@H](C)O)C(C)C)[C@@H](C)O [Example 13] (H-K([γGlu-γGlu-C20 diacid])CNTATCATQRLAEFLRHSSPNFGAIPSSTNVGSNTP-NH2; disulfide 2-7; N-terminus assumed)
The “ThT pH 4.0 recovery (%)” value of the first is higher: 83% for the first, 75% for the second.

First: CC[C@H](C)[C@H](NC(=O)[C@H](C)NC(=O)CNC(=O)[C@H](Cc1ccccc1)NC(=O)[C@H](CC(N)=O)NC(=O)[C@@H]1CCCN1C(=O)[C@H](CO)NC(=O)[C@H](CO)NC(=O)[C@H](Cc1c[nH]cn1)NC(=O)[C@H](CCCNC(=N)N)NC(=O)[C@H](CC(C)C)NC(=O)[C@H](Cc1ccccc1)NC(=O)[C@H](CCC(=O)O)NC(=O)[C@H](C)NC(=O)[C@H](CC(C)C)NC(=O)[C@H](CCCNC(=N)N)NC(=O)[C@H](CCC(N)=O)NC(=O)[C@@H](NC(=O)[C@H](C)NC(=O)[C@@H]1CSSC[C@H](NC(=O)[C@H](CCCCN)NC(=O)CC[C@H](NC(=O)CC[C@H](NC(=O)CCCCCCCCCCCCCCCCCCC(=O)O)C(=O)O)C(=O)O)C(=O)N[C@@H](CC(N)=O)C(=O)N[C@@H]([C@@H](C)O)C(=O)N[C@@H](C)C(=O)N[C@@H]([C@@H](C)O)C(=O)N1)[C@@H](C)O)C(=O)N1CCC[C@H]1C(=O)N[C@@H](CO)C(=O)N[C@@H](CO)C(=O)N[C@H](C(=O)N[C@@H](CC(N)=O)C(=O)N[C@H](C(=O)NCC(=O)N[C@@H](CO)C(=O)N[C@@H](CC(N)=O)C(=O)N[C@H](C(=O)N[C@@H](Cc1ccc(O)cc1)C(N)=O)[C@@H](C)O)C(C)C)[C@@H](C)O [Example 15] ({C20 diacid-γGlu-γGlu}-KCNTATCATQRLAEFLRHSSPNFGAIPSSTNVGSNTY-NH2; disulfide 2-7 (inferred))
Second: CC[C@H](C)[C@H](NC(=O)[C@H](C)NC(=O)CNC(=O)[C@H](Cc1ccccc1)NC(=O)[C@H](CC(N)=O)NC(=O)[C@@H]1CCCN1C(=O)[C@H](CO)NC(=O)[C@H](CO)NC(=O)[C@H](Cc1c[nH]cn1)NC(=O)[C@H](CCCNC(=N)N)NC(=O)[C@H](CC(C)C)NC(=O)[C@H](Cc1ccccc1)NC(=O)[C@H](CCC(=O)O)NC(=O)[C@H](C)NC(=O)[C@H](CC(C)C)NC(=O)[C@H](CCCNC(=N)N)NC(=O)[C@H](CCC(N)=O)NC(=O)[C@@H](NC(=O)[C@H](C)NC(=O)[C@@H]1CSSC[C@H](NC(=O)[C@H](CCCCN)NC(=O)CC[C@H](NC(=O)CCCCCCCCCCCCCCCCCCC(=O)O)C(=O)O)C(=O)N[C@@H](CC(N)=O)C(=O)N[C@@H]([C@@H](C)O)C(=O)N[C@@H](C)C(=O)N[C@@H]([C@@H](C)O)C(=O)N1)[C@@H](C)O)C(=O)N1CCC[C@H]1C(=O)N[C@@H](CO)C(=O)N[C@@H](CO)C(=O)N[C@H](C(=O)N[C@@H](CC(N)=O)C(=O)N[C@H](C(=O)NCC(=O)N[C@@H](CO)C(=O)N[C@@H](CCCNC(=N)N)C(=O)N[C@H](C(=O)N[C@@H](Cc1ccc(O)cc1)C(N)=O)[C@@H](C)O)C(C)C)[C@@H](C)O [Example 16] ({C20 diacid-γGlu}-KCNTATCATQRLAEFLRHSSPNFGAIPSSTNVGSRTY-NH2; disulfide 2-7)
The “ThT pH 4.0 recovery (%)” value of the first is lower: 20% for the first, 89% for the second.
